Whole data set: some 2,900 compounds, median “IRF Lucia reporter activity, fold change vs agonist alone” near 0.9, cut for the highest 2% near 2.8. This is one part of the list.
What was measured:
[1] = system: RAW-Dual; assay: IRF Lucia reporter activity, fold change vs agonist alone; cytotoxicity flag (confluency mask): not cytotoxic; higher = enhanced IRF activity
Method in brief: (§1)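 RAW-Dual macrophages were seeded in DMEM at 50,000 cells/well in 384-well plates, given 50 nL of library stock by pin tool, and given a PRR agonist 1 h later. Plates were held at 37 °C, 5% CO2 for 20 hours, after which supernatant was read for IRF by QuantiLuc luminescence and for NF-κB by QuantiBlue absorbance at 620 nm. Reporter activity is expressed as fold change over wells that received agonist alone. A well was called cytotoxic when IncuCyte confluency fell below 70% of agonist controls in both mask sets.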

[2] = system: RAW-Dual; assay: IRF Lucia reporter activity, fold change vs agonist alone; higher = enhanced IRF activity; conditions: cytotoxicity flag (confluency mask): not cytotoxic, agonist: MPLA (TLR4) […]
Method in brief: as §1

[3] = system: RAW-Dual; assay: IRF Lucia reporter activity, fold change vs agonist alone; cytotoxicity flag (confluency mask): cytotoxic (confluency <70% of control); higher = enhanced IRF activity
Method in brief: as §1

[4] = agonist: 3'3'-cGAMP (STING) 10 ug/mL
[5] = library stock concentration (final ~1000-fold dilution): 10 mM

COc1cc2c(cc1OC)CC(=O)N(CCCN(C)CC1Cc3cc(OC)c(OC)cc31)CC2.Cl (stereo not given) (library stock concentration (final ~1000-fold dilution): 10 mM)
IRF Lucia reporter activity [1, 4]: 0.904
IRF Lucia reporter activity ([1]; agonist: LPS (TLR4) 0.1 ug/mL): 1.01

COc1cc2c(cc1OC)CC(=O)N(CCCN(C)CC1Cc3cc(OC)c(OC)cc31)CC2.Cl (stereo not given)
IRF Lucia reporter activity [2, 5]: 0.93

CC(C)Oc1ccc(C(=O)NC(CNC(=O)CN(C)C)Cc2ccc(-c3cn4cccc(C(C)O)c4n3)cc2)cc1Cl (stereo not given)
IRF Lucia reporter activity [2, 5]: 1.61

CC(C)Oc1ccc(C(=O)NC(CNC(=O)CN(C)C)Cc2ccc(-c3cn4cccc(C(C)O)c4n3)cc2)cc1Cl (stereo not given) (library stock concentration (final ~1000-fold dilution): 10 mM)
IRF Lucia reporter activity [1, 4]: 0.535
IRF Lucia reporter activity ([1]; agonist: LPS (TLR4) 0.1 ug/mL): 1.24

N=C(CCl)NCCCC(NC(=O)c1ccccc1)C(N)=O.O=C(O)C(F)(F)F (stereo not given) (library stock concentration (final ~1000-fold dilution): 10 mM)
IRF Lucia reporter activity [1, 4]: 0.913
IRF Lucia reporter activity ([1]; agonist: LPS (TLR4) 0.1 ug/mL): 0.53

CCCN1CCCCC1C(=O)Nc1c(C)cccc1C (stereo not given) (library stock concentration (final ~1000-fold dilution): 10 mM)
IRF Lucia reporter activity [1, 4]: 1.01
IRF Lucia reporter activity ([1]; agonist: LPS (TLR4) 0.1 ug/mL): 1.26

CCCN1CCCCC1C(=O)Nc1c(C)cccc1C (stereo not given)
IRF Lucia reporter activity [2, 5]: 1.07

Cc1cn(-c2cc(NC(=O)c3ccc(C)c(Nc4nccc(-c5cnccn5)n4)c3)cc(C(F)(F)F)c2)cn1 (library stock concentration (final ~1000-fold dilution): 10 mM)
IRF Lucia reporter activity [1, 4]: 1.02
IRF Lucia reporter activity ([1]; agonist: LPS (TLR4) 0.1 ug/mL): 0.993

Cc1c(S(=O)(=O)O)oc2c1C(=O)C(=O)c1c-2ccc2c1CCCC2(C)C (library stock concentration (final ~1000-fold dilution): 10 mM)
IRF Lucia reporter activity [1, 4]: 0.96
IRF Lucia reporter activity ([1]; agonist: LPS (TLR4) 0.1 ug/mL): 1.14

Cc1c(S(=O)(=O)O)oc2c1C(=O)C(=O)c1c-2ccc2c1CCCC2(C)C
IRF Lucia reporter activity [2, 5]: 1.04

Cl.NCCCCC(N)C(=O)O (stereo not given) (library stock concentration (final ~1000-fold dilution): 10 mM water)
IRF Lucia reporter activity [1, 4]: 1.41
IRF Lucia reporter activity ([1]; agonist: LPS (TLR4) 0.1 ug/mL): 0.888

Cl.NCCCCC(N)C(=O)O (stereo not given)
IRF Lucia reporter activity ([2]; library stock concentration (final ~1000-fold dilution): 10 mM water): 1.4

CN(C)CCCSC(=N)N.Cl.Cl
IRF Lucia reporter activity [2, 5]: 1.12

CN(C)CCCSC(=N)N.Cl.Cl (library stock concentration (final ~1000-fold dilution): 10 mM)
IRF Lucia reporter activity [1, 4]: 1.13
IRF Lucia reporter activity ([1]; agonist: LPS (TLR4) 0.1 ug/mL): 0.819

CN1c2ccccc2C(=O)N2CCc3c([nH]c4ccccc34)C21 (stereo not given) (library stock concentration (final ~1000-fold dilution): 10 mM)
IRF Lucia reporter activity [1, 4]: 0.723
IRF Lucia reporter activity ([1]; agonist: LPS (TLR4) 0.1 ug/mL): 0.813

CN1c2ccccc2C(=O)N2CCc3c([nH]c4ccccc34)C21 (stereo not given)
IRF Lucia reporter activity [2, 5]: 0.845

Fc1ccc(Nc2nc(Nc3ccc(-c4nc5ccccc5[nH]4)cc3)nc(N3CCOCC3)n2)cc1 (library stock concentration (final ~1000-fold dilution): 10 mM)
IRF Lucia reporter activity [3, 4]: 0.0258
IRF Lucia reporter activity ([3]; agonist: LPS (TLR4) 0.1 ug/mL): 0.0727

CC#CCn1c(N2CCCC(N)C2)nc2c1c(=O)n(Cc1nc(C)c3ccccc3n1)c(=O)n2C (stereo not given)
IRF Lucia reporter activity [2, 5]: 0.994

CC#CCn1c(N2CCCC(N)C2)nc2c1c(=O)n(Cc1nc(C)c3ccccc3n1)c(=O)n2C (stereo not given) (library stock concentration (final ~1000-fold dilution): 10 mM)
IRF Lucia reporter activity [1, 4]: 1.06
IRF Lucia reporter activity ([1]; agonist: LPS (TLR4) 0.1 ug/mL): 1.06

Source: the supplement of paper PMC10037445
